# Data taken from the supplement of paper PMC10338343.
# ± gives the standard deviation. The list shows a part of the results, in another mix than the full data.
# System: MIWI (PIWIL1) piRISC loaded with L1MC piRNA (30 nt)
# Test: pre-steady-state target cleavage rate (min^-1); MIWI and MILI are mouse PIWI proteins and EfPiwi is from a freshwater sponge; tags in brackets are library labels; higher = faster piRNA-guided slicing of the target
# Details: guide: L1MC piRNA 5'p-UAACUAAAUACUAUGCAAGCUGUAGGUCCU; auxiliary factor: 500 nM mouse GTSF1
# Summary of the method: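 The pre-steady-state cleavage rate was derived from a burst-and-steady-state fit of Cleave-'n-Seq data. For these assays, 1 nM active affinity-purified piRISC loaded with a single synthetic guide was mixed with […] a transcribed, DNA-blocked target RNA library in HEPES–potassium acetate buffer at 33 °C, with or without 500 nM GTSF1 partner protein, for 0–8 or 0–960 min. Sequencing counts of uncleaved targets were normalised to depth and to weakly complementary targets, and k3 was capped at 0.0001 min^-1 after three trials were pooled.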
# 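Further: 1 nM active piRISC with 0.1 nM target library at 33 °C single turnover.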
row,Sequence,pre-steady-state target cleavage rate
1,UCCUGGAUCACUUGCAUAGUAUUUAGUUA,0.431 ± 0.038
2,UCGACCUACUGCUUGCAUAGUAUUUAGAAA,0.259 ± 0.027
3,UCCUGCUACAGCUUGCUUAGUAUUUACUUA,0.233 ± 0.02
4,UGGUCCUACAGCUUGCAUAGUAAUUAGUUA,0.68 ± 0.034
5,UCCUGCUACAGCUUGCAUAGUAUAUUAGUUA,0.891 ± 0.065
6,AGGACCUACAGCUUGCAUAGUAUUUAGAUUA,0.376 ± 0.034
7,UGGACCUACAGCUUGCAUAGAUUUUAGUUA,0.126 ± 0.012
8,AGGACCUACAGGUUGCAUAGUAUUUUGUUA,0.842 ± 0.083
9,UCCUGGAUGAGCUAGCAUACUAUUUAGUUA,0.145 ± 0.021
10,UCCUGGAACAGCUUGCAUAGUAUUUAGAUUA,0.21 ± 0.029
11,UCCUGGAACUGCUUGCAUAGUAUUUAGUUA,0.789 ± 0.027
12,UGGACCUUCAGCUUGCAUAGUAUUUAGUUA,1.45 ± 0.067
13,UCCUCCUACACUUGCAUAGUAUUUAGUUA,0.959 ± 0.044
14,UCCUGGAUGUCCUUGCAUAGUAUUUAGCUUA,0.0471 ± 0.0091
15,UGGUGGUACAGCUUGCAUAGUAUUUACAAA,0.0681 ± 0.014
16,UCCUGGAUCAGCUUGCAUAGUAUUUACAUA,0.111 ± 0.017
17,UCCUGGAUGUGCUUGCAUACUAUUUAGAUA,0.0129 ± 0.0051
18,UCCUGGAUGUGCUUGCAUACUAUUAAGUUA,0.0149 ± 0.0067
19,UCCAGGAACAGCUUGCAUAGUAUUUAGAAA,0.359 ± 0.043
20,UCCUGGAUCUGCUUGCAUAGUAUUUAGAUA,0.178 ± 0.018

row,Sequence,pre-steady-state target cleavage rate
1,UCGAGCUACAGCUAGCAUAGUAUUUAGUUA,1.19 ± 0.085
2,AGGACCUACAGCUUGCAUAGUAUUAUCUUA,0.335 ± 0.051
3,UCCUGCUACAGCUUGCAUAGUAUUUCGUUA,0.278 ± 0.04
4,UCCUGCUACAGCAUGCAUACUAUUUAGUUA,0.507 ± 0.038
5,UCCUCCUUCAGCUUGCAUAGUAUUUAGUAA,0.717 ± 0.04
6,UCCUGGAUGAGCUCGCAUAGUAUUUAGUUA,0.837 ± 0.05
7,UCCUGCUACAGCUUGCAUAGUAUUUGGUUA,0.754 ± 0.06
8,UCCUGGUACAGCUUGCAUAGUAUUUCAGUUA,0.505 ± 0.12
9,UCCUGCUACAGCAUUGCAUAGUAUUUAGUUA,0.941 ± 0.074
10,AGGACCUACAGGUUGCAUAGUAAUUAGUUA,0.773 ± 0.067
11,AGGACCUACAGCUGCAUAGUAUUUAGUUA,1.15 ± 0.068
12,AGGACCUACAGCUUGCAUAGUAUUAUGUUA,0.47 ± 0.056
13,UGGACCUACAGCUUGCAUAGUAUUUAGGUA,0.376 ± 0.033
14,UGGACCUACAGGAUGCAUAGUAUUUAGAAA,0.291 ± 0.04
15,UCCACCUACAUGCUUGCAUAGUAUUUAGUUA,0.347 ± 0.034
16,UCCUGGUACAGCUUGCAAAGUAUUUAGUUA,0.711 ± 0.046
17,UCCUGCUACAGCUUGCAUAGUAUAAAGUUA,0.469 ± 0.043
18,UCCUGCAUGAGCUUGCAUAGUAUUUAGAAA,0.315 ± 0.048
19,AGGACGAUCAGCUUGCAUAGUAUUUAGUUA,1.43 ± 0.068
20,UCCUGGAUGUCCUGUGCAUAGUAUUUAGUUA,0.0103 ± 0.0044

# Same assay, conditions: guide: L1MC piRNA 5'p-UAACUAAAUACUAUGCAAGCUGUAGGUCCU; auxiliary factor: none (no GTSF1)
row,Sequence,pre-steady-state target cleavage rate
1,UCCUGGAUCACUUGCAUAGUAUUUAGUUA,0.00994 ± 0.0033
2,UCGACCUACUGCUUGCAUAGUAUUUAGAAA,0.00884 ± 0.0021
3,UCCUGCUACAGCUUGCUUAGUAUUUACUUA,0.0139 ± 0.0032
4,UGGUCCUACAGCUUGCAUAGUAAUUAGUUA,0.0288 ± 0.0053
5,UCCUGCUACAGCUUGCAUAGUAUAUUAGUUA,0.00734 ± 0.0025
6,AGGACCUACAGCUUGCAUAGUAUUUAGAUUA,0.0531 ± 0.0095
7,UGGACCUACAGCUUGCAUAGAUUUUAGUUA,0.0063 ± 0.0022
8,AGGACCUACAGGUUGCAUAGUAUUUUGUUA,0.0435 ± 0.0083
9,UCCUGGAUGAGCUAGCAUACUAUUUAGUUA,0.00424 ± 0.0027
10,UCCUGGAACAGCUUGCAUAGUAUUUAGAUUA,0.0342 ± 0.0092
11,UCCUGGAACUGCUUGCAUAGUAUUUAGUUA,0.0296 ± 0.0071
12,UGGACCUUCAGCUUGCAUAGUAUUUAGUUA,0.069 ± 0.011
13,UCCUCCUACACUUGCAUAGUAUUUAGUUA,0.0195 ± 0.0048
14,UCCUGGAUGUCCUUGCAUAGUAUUUAGCUUA,0.00476 ± 0.0022
15,UGGUGGUACAGCUUGCAUAGUAUUUACAAA,0.00234 ± 0.0023
16,UCCUGGAUCAGCUUGCAUAGUAUUUACAUA,0.00862 ± 0.0023
17,UCCUGGAUGUGCUUGCAUACUAUUUAGAUA,0.00516 ± 0.0023
18,UCCUGGAUGUGCUUGCAUACUAUUAAGUUA,0.00358 ± 0.0027
19,UCCAGGAACAGCUUGCAUAGUAUUUAGAAA,0.0116 ± 0.0031
20,UCCUGGAUCUGCUUGCAUAGUAUUUAGAUA,0.0113 ± 0.0032

row,Sequence,pre-steady-state target cleavage rate
1,UCGAGCUACAGCUAGCAUAGUAUUUAGUUA,0.0195 ± 0.0042
2,AGGACCUACAGCUUGCAUAGUAUUAUCUUA,0.00684 ± 0.0037
3,UCCUGCUACAGCUUGCAUAGUAUUUCGUUA,0.0278 ± 0.0063
4,UCCUGCUACAGCAUGCAUACUAUUUAGUUA,0.0165 ± 0.0037
5,UCCUCCUUCAGCUUGCAUAGUAUUUAGUAA,0.0202 ± 0.0041
6,UCCUGGAUGAGCUCGCAUAGUAUUUAGUUA,0.0318 ± 0.0078
7,UCCUGCUACAGCUUGCAUAGUAUUUGGUUA,0.0301 ± 0.0052
8,UCCUGGUACAGCUUGCAUAGUAUUUCAGUUA,0.00567 ± 0.0032
9,UCCUGCUACAGCAUUGCAUAGUAUUUAGUUA,0.0182 ± 0.0044
10,AGGACCUACAGGUUGCAUAGUAAUUAGUUA,0.0209 ± 0.0048
11,AGGACCUACAGCUGCAUAGUAUUUAGUUA,0.0107 ± 0.0029
12,AGGACCUACAGCUUGCAUAGUAUUAUGUUA,0.0327 ± 0.0076
13,UGGACCUACAGCUUGCAUAGUAUUUAGGUA,0.0312 ± 0.0059
14,UGGACCUACAGGAUGCAUAGUAUUUAGAAA,0.00285 ± 0.0024
15,UCCACCUACAUGCUUGCAUAGUAUUUAGUUA,0.0318 ± 0.0049
16,UCCUGGUACAGCUUGCAAAGUAUUUAGUUA,0.0405 ± 0.0074
17,UCCUGCUACAGCUUGCAUAGUAUAAAGUUA,0.0112 ± 0.0034
18,UCCUGCAUGAGCUUGCAUAGUAUUUAGAAA,0.00431 ± 0.0027
19,AGGACGAUCAGCUUGCAUAGUAUUUAGUUA,0.0865 ± 0.016
20,UCCUGGAUGUCCUGUGCAUAGUAUUUAGUUA,0.00389 ± 0.0034
